Experimental data taken from PubChem BioAssay AID686979 (National Center for Advancing Translational Sciences (NCATS), 2013).
Several values for one entry are separate records, joined by “and”; a condition that tells them apart may be missing. Equal entries are not always repeated. Among all 420,000 compounds or so, about 50,000 (12%) were called active. The inconclusive results got no clear call from the source; some entries with a clear call stand among them for comparison. Calls come from the whole dose curve; as a rule, active = well fitted inhibition curve with a large enough effect; inconclusive = small, poorly fitted or top-dose-only effect; inactive = flat fitted curve, though single readings scatter. Where the call is inconclusive, the potency comes from a doubtful curve fit.

Experiment: qHTS for Inhibitors of human tyrosyl-DNA phosphodiesterase 1 (TDP1): qHTS in cells in presence of CPT; note: nearly all actives have a fitted effect of over 55% in size
Details: chicken DT40 Tdp1-/-;hTDP1 cells + 20 nM CPT, ATP luminescence, 48 h; activity change, negative = growth inhibition: at 46.2 µM (top of the series) unless noted
Summary of the method: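 Cell growth measured by CellTiter-Glo luminescence after a minimum 48 h, 37 C compound exposure with 20 nM CPT in Tdp1-knockout DT40 cells stably expressing hTDP1, seeded 400/well; qHTS titration format.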
% is set by controls: 0 for no effect and ±100 for the full control effect; potency is the fitted concentration of half-maximal effect; tags give direction and shape of the fitted curve.

| SMILES | activity change, negative = growth inhibition | Potency |
| --- | --- | --- |
| COc1ccc(N2CCN(C(=O)c3cc4c(s3)-c3c(C)cccc3OC4)CC2)cc1 | inactive: -9.88% |  |
| O=C(NNC(=S)Nc1ccc(F)cc1)c1cccc([N+](=O)[O-])c1 | inactive: -8.27% |  |
| CCCN(CCC)Cc1cc(=O)oc2cc(OC)ccc12 |  | inconclusive: 29.1 µM [inhibitor, single point] |
| COc1ccc(N2C[C@H](C)[C@@H](CC(=O)Nc3ccccc3)C2=O)cc1 | inactive: 0.0747% |  |
| O=C(NNC(=S)NC(=O)c1ccco1)c1ccc(F)cc1 |  | inconclusive: 29.1 µM [inhibitor, single point] |
| COc1ccc(C)cc1NC(=O)CSc1nc(=O)n(CCCN2CCOCC2)c2c1CCCC2 |  | inconclusive: 16.4 µM [inhibitor, single point] |
| CC(C)c1ccc(O)c(NC(=S)NC(=O)c2ccc3c(c2)OCO3)c1 |  | active: 13 µM |
| CN(C)N1C(N)=C(C#N)C(c2cccc3ccccc23)C2=C1CC(c1ccccc1)CC2=O (stereo unspecified) |  | active: 8.2 µM |
| CC(C)CC(c1nnnn1C(C)C)N1CCN(c2cccc(Cl)c2)CC1 (stereo unspecified) |  | inconclusive: 29.1 µM [inhibitor, single point] |
| CCOCCCNCc1cc(Br)ccc1OCC |  | inconclusive: 16.4 µM [inhibitor, partial curve] |
| c1ccc2c(-c3cnc4cccnn34)cncc2c1 |  | inconclusive: 7.31 µM [inhibitor, partial curve, poor fit] |
| CC(C)C[C@@H](CN1CCC[C@@H]1CN1C(=S)NC[C@@H]1Cc1ccccc1)N1C[C@H](Cc2ccc(O)cc2)N(CC2CCCCCC2)C1=S |  | active: 13 µM |
| CCSc1nnc(-c2cccc(S(=O)(=O)N(CC)CC)c2)n1Cc1ccccc1 |  | active: 11.2 µM |
| COc1cc(CC(=O)OCc2ccccc2F)cc(OC)c1OC | inactive: -2.18% |  |
| O=C(COc1ccc2ccc(=O)oc2c1)Nc1nccs1 | inactive: -5.38% |  |
| CCCCN(CCCC)S(=O)(=O)c1ccc(NC(=O)c2ccc([N+](=O)[O-])cc2Cl)cc1 |  | inconclusive: 29.1 µM [inhibitor, single point] |
| CC(=O)N1CCc2cc(C(=O)CN3CCC(C)CC3)ccc21 |  | inconclusive: 6.51 µM [inhibitor, single point] |
| CCN(CC)c1ccc(NC(=O)C2CCCN(S(=O)(=O)c3ccc4c(c3)oc(=O)n4C)C2)c(C)c1 (stereo unspecified) |  | active: 20.6 µM |
| C=CCN1C(=O)/C(=C2/Sc3ccc(OC)cc3N2C)SC1=NCc1ccccc1 | inconclusive: -35.4% [inhibitor] |  |
| COc1cc(/C=N/Nc2nc(C)cc(C)n2)ccc1OC(=O)c1ccco1 | inactive: -24% |  |
| COc1ccc(N2CCN(C(=O)c3ccccc3NC(=O)C3=C(C)OCCS3)CC2)cc1 |  | inconclusive: 18.4 µM [inhibitor, single point] |
| CCOC(=O)c1c(S(=O)(=O)N2CCN(c3cc(Cl)ccc3C)CC2)c(C)n(C)c1C |  | inconclusive: 23.1 µM [inhibitor, single point] |
| Cc1nn(CC(=O)NC2CCC(C)CC2)c(=O)c(C#N)c1C (stereo unspecified) | inactive: 0.693% |  |
| Cc1ccc(NC(=O)C2CCCN(S(=O)(=O)c3ccc(C)cc3)C2)cc1 (stereo unspecified) |  | active: 16.4 µM |

| SMILES | activity change, negative = growth inhibition | Potency |
| --- | --- | --- |
| COCCn1c(SCc2ccc(C(=O)OC)o2)nnc1-c1c[nH]c2ccccc12 | inactive: -20.2% |  |
| CCOC(=O)N1CCC2(CC1)CC(=O)c1cc(O)ccc1O2 |  | inconclusive: 2.31 µM [inhibitor, partial curve] |
| O=C(Cn1c2c(sc1=O)C1c3ccccc3OCC1CS2)Nc1ccc(Cl)cc1 (stereo unspecified) |  | inconclusive: 29.1 µM [inhibitor, single point] |
| COc1ccccc1C(=O)n1nc(C)cc1C | inactive: 1.6% |  |
| COc1ccccc1CSc1nc2n(n1)C(c1ccccc1)C(C(=O)Nc1ccc(C)cc1)=C(C)N2 (stereo unspecified) |  | active: 16.4 µM |
| CCC(Sc1nc2n[nH]c(C)c2c(=N)n1-c1ccc(Br)cc1)C(=O)N(CC)CC (stereo unspecified) |  | active: 18.4 µM |
| O=C1/C(=C\c2ccc(O)cc2)SC(=S)N1Cc1ccccc1 |  | inconclusive: 20.6 µM [inhibitor, partial curve, poor fit] |
| COc1cc2nc(C3CCC3)nc(N3CCN(c4ccccc4OC)CC3)c2cc1OC |  | active: 16.4 µM |
| COc1cc(NS(=O)(=O)c2ccc3c(c2)OCC(C(=O)N2CCCC2)O3)cc(OC)c1 (stereo unspecified) |  | inconclusive: 29.1 µM [inhibitor, single point] |
| Cc1c(Cl)cccc1NC(=O)c1cc(C2CC2)on1 |  | inconclusive: 29.1 µM [inhibitor, single point] |
| O=C(c1cccc(C(=O)N2CCN(Cc3ccccc3)CC2)c1)N1CCN(Cc2ccccc2)CC1 | inactive: -21.7% |  |
| Clc1ccc(-c2noc(CSc3nnc(-c4ccncc4)n3-c3ccccc3)n2)cc1 |  | inconclusive: 29.1 µM [inhibitor, single point] |
| O=S1(=O)CCC(NC(=S)SCCOc2ccccc2)C1 (stereo unspecified) |  | active: 8.2 µM |
| Cc1noc(C)c1S(=O)(=O)N1CCC(C(=O)N2CCN(c3ccc(F)cc3)CC2)CC1 | inconclusive: -38.1% [inhibitor] |  |
| CC(=O)C1=CN(Cc2ccccc2)CCC1=O | inactive: -0.66% |  |
| COc1cccc(-c2ncc3ccccc3c2COC(=O)CCC(=O)O)c1 | inactive: -18.2% |  |
| Cc1ccc(OCc2cc(C(=O)N3CCCC(C)C3)no2)cn1 (stereo unspecified) |  | active: 16.4 µM |
| COC(=O)[C@H](CCSC)NC(=O)Cn1cnc2c(SC)nc(N)nc21 |  | inconclusive: 18.4 µM [inhibitor, single point] |
| COc1ccc(NC(=O)Cn2ncc3c4ccccc4n(Cc4ccccc4)c3c2=O)cc1OC | inactive: -5.28% |  |
| CC(=O)Nc1ccc(S(=O)(=O)N(C)c2ccc(OCC(=O)NCCc3ccccc3F)cc2)cc1 |  | inconclusive: 11.6 µM [inhibitor, partial curve] |
| COc1ccc(S(=O)(=O)N2CCC(C(=O)NCCC(=O)Nc3cccc(Cl)c3)CC2)cc1 |  | inconclusive: 16.4 µM [inhibitor, single point] |
| Cc1ccc(SCCC(=O)Nc2ccccc2C(=O)NC2CCCCC2)cc1 | inactive: 11.3% |  |
| O=[N+]([O-])c1cccc(-c2n[nH]c(=S)n2Cc2ccccc2)c1 | inactive: -18.5% |  |
| O=C(Nc1ccccc1Cl)c1cc(C2CCCCN2C(=O)c2ccccc2)on1 (stereo unspecified) |  | active: 29.1 µM |

| SMILES | activity change, negative = growth inhibition | Potency |
| --- | --- | --- |
| COC(=O)C[C@H]1c2cc(C(F)(F)F)ccc2S(=O)(=O)N1c1ccc(N(C)C)cc1 |  | active: 11.2 µM and active: 13 µM |
| Cc1ccc(NC(=O)Cn2nc(-c3ccc(Cl)cc3)c3ccccc3c2=O)cc1 |  | inconclusive: 29.1 µM [inhibitor, single point] |
| CCCc1cc2c(cc1N(C)S(=O)(=O)c1ccccc1)OCO2 |  | active: 3.66 µM |
| O=C(OCC(=O)N1CCC(c2ccccc2)=N1)c1ccc(Cl)s1 | inactive: -0.372% |  |
| CCC(C)Sc1ccc([C@@H]2[C@@H]3C(=O)N(CC)C(=O)[C@@H]3[C@]3(C(=O)OC)CCCCN23)cc1 (stereo partly specified) |  | inconclusive: 20.6 µM [inhibitor, single point] |
| CCn1cc(C(=O)Nc2ccc(C)cc2[N+](=O)[O-])c(C)n1 | inactive: -5.37% |  |
| NNCCc1ccccc1 |  | inactive and inconclusive: 18.4 µM [inhibitor, single point] and inconclusive: 29.1 µM [inhibitor, single point] |
| CN(CCOc1ccc(Cl)cc1)C(=O)CN1C(=O)NC2(CCCC2)C1=O |  | inconclusive: 16.4 µM [inhibitor, single point] |
| Cc1c(Cl)cccc1NC(=O)CCS(=O)(=O)c1cccc2nsnc12 |  | active: 14.6 µM |
| COc1ccc(C(=O)OCC(=O)c2ccc3c(c2)NC(=O)CO3)cc1[N+](=O)[O-] | inactive: 3.98% |  |
| Cc1ccc(NC(=O)c2ccc(Cl)c(S(=O)(=O)N3CCc4ccccc43)c2)nc1 |  | inconclusive: 10.3 µM [inhibitor, single point] |
| CC1=NN(C(=O)c2ccccc2Cl)C(O)(c2cccnc2)C1 (stereo unspecified) |  | inconclusive: 23.1 µM [inhibitor, single point] |
| CC(=O)C1=NN(c2ccc(Cl)cc2)C(c2ccc3c(c2)OCO3)N(C(C)=O)N1C (stereo unspecified) |  | inconclusive: 29.1 µM [inhibitor, single point] |
| O=C(NCc1ccccc1)c1cc(C2COCCN2C(=O)c2ccc(Cl)cc2)on1 (stereo unspecified) | inactive: -3.38% |  |
| COc1ccc2nc(C(F)(F)Cl)c(C#N)c(N)c2c1 |  | inconclusive: 25.9 µM [inhibitor, single point] |
| Cc1ccc(-c2cc3nc(C)cc(N4CCN(C(=O)c5ccoc5)CC4)n3n2)cc1 |  | inconclusive: 29.1 µM [inhibitor, single point] |
| CC(C)(C)c1ccc(S(=O)(=O)N[C@H]2CC[C@@H](n3cc(C(=O)N4CCCC4)nn3)CC2)cc1 |  | inconclusive: 18.4 µM [inhibitor, single point] |
| CCc1ccc(-c2nc3cc(NC(=O)c4ccc(F)cc4)ccc3o2)cc1 | inactive: -15% |  |
| O=C1Cc2cc(NS(=O)(=O)c3ccc(F)cc3)cc3c2N1CCC3 |  | inconclusive: 18.4 µM [inhibitor, single point] |
| COc1ccc(CC(=O)N2CCN(S(=O)(=O)c3cc(Cl)ccc3Cl)CC2)cc1 |  | inconclusive: 29.1 µM [inhibitor, single point] |
| Fc1ccc(CN2C3=NCCCN3c3ccccc32)cc1 |  | inconclusive: 23.1 µM [inhibitor, single point] |
| CCOC(=O)N1CCN(C(=O)C(=O)Nc2sc3c(c2C(=O)O)CC(C)(C)OC3)CC1 | inconclusive: -6.52% [inhibitor] |  |
| Cc1ccc(CNC(=O)CCN2C(=O)C(C)Oc3ccc(C)cc32)cc1 (stereo unspecified) |  | inconclusive: 20.6 µM [inhibitor, single point] |
